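Where inhibition never reached the appropriate level, the endpoint shown equals the highest concentration tested. Otherwise, values were interpolated linearly from a five-concentration, 48-hour dose response in 96-well plates. Here, GI50 denotes the concentration required for 50% inhibition of growth.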 Activity calls are given as the source filed them. Rule as the data show it: active = GI50 up to about 1.1 µM and inactive = higher. Square brackets hold non-standard residues; d marks the D form. Peptide text beside a SMILES is read from it. * marks the point of attachment. ξ: configuration not given here. ξF = NC(Cc1ccccc1)C(=O)O; Cbz = O=C(OCc1ccccc1)*; Boc = CC(C)(C)OC(=O)*; Aib = CC(C)(N)C(=O)O; OBn = c1ccc(CO*)cc1
system: NCI-H322M; test: growth of human tumour cells (NCI), 48 h

Structure (SMILES)	GI50
O=C1C(=Cc2ccccc2O)N=C(c2ccccc2)N1n1c(-c2ccccc2)nc2ccccc2c1=O	inactive: 36.4 µM
CC1(n2nc(-c3ccccc3)n(-c3ccccc3)c2=O)CSC1	inactive: > 100 µM
Nc1ccc2nc3ccc(=O)cc-3n(-c3ccccc3)c2c1	inactive: > 100 µM
CC1(C)N=C(N)N=C(N)N1c1ccc(CCCCc2ccc(Cl)cc2Cl)cc1	active: 0.957 µM
CCOc1ccccc1/N=N/C1C(=O)N(C(=O)CC(=O)Nc2ccccc2OC)N=C1C (centres undefined)	inactive: 51.3 µM
CCOC(=O)NC(=O)c1cn(CCCOC(=O)CCCCCCCCC(=O)OCCCn2cc(C(=O)NC(=O)OCC)c(=O)n(C)c2=O)c(=O)n(C)c1=O	inactive: > 100 µM
O=C(O)CN(c1ccccc1)S(=O)(=O)c1ccc(NC(=O)c2ccccc2)cc1	inactive: > 100 µM
CCC(=O)N/S(=N/S(=O)(=O)c1ccccc1)C(Cl)(Cl)Cl (centres undefined)	inactive: > 100 µM
CC1(C)C2CCC(N)(C2)C1O (centres undefined)	inactive: > 100 µM
COC(=O)c1ccc(NCC2=C(Br)C(=O)C=CC2=O)cc1Cl	inactive: > 100 µM
O=C1C(c2ccc([N+](=O)[O-])cc2)=[N+]([O-])c2ccccc21	inactive: 69.5 µM
Nc1cccc2cc(S(=O)(=O)Nc3ccc(C(=O)O)cc3)ccc12	inactive: > 100 µM
COc1cc2c(cc1NC(=O)c1ccccc1)c1c(n2S(=O)(=O)c2ccccc2)CCN(S(=O)(=O)c2ccccc2)C1	inactive: > 100 µM
C[C@@H](NC1CCC[C@@H]1O)c1ccccc1 (some centres undefined)	inactive: > 100 µM
S=C(N/N=C/c1ccccn1)N1CC2CCC(CC2)C1	active: < 0.0156 µM
COC(=O)C(CCCCNC(=O)OCc1ccccc1)NC(=O)C(CCC(=O)OCc1ccccc1)NC(=O)OC(C)(C)C (centres undefined) (Boc-Glu(OBn)-Lys(Cbz)-OMe; configuration not given here)	inactive: > 100 µM
CCOC(=O)CNC(=O)C(Cc1ccccc1)NC(=O)C(C)(C)NC(=O)OCc1ccccc1 (centres undefined) (Cbz-[Aib]-[ξF]-Gly-OEt)	inactive: > 100 µM
C=C(C)CCOC(c1ccccc1)(c1ccccc1)c1ccccc1	inactive: 84.1 µM
Cc1ccc(/N=C2/SC(c3ccc(C)cc3)(c3ccc(C)cc3)c3ccccc32)cc1	inactive: > 100 µM
COc1ccc(/N=N\c2c(N)nn3c(SC)c(C#N)c(N)nc23)cc1	inactive: 11.4 µM
CC(=O)/N=C1\NC(=O)/C(=C/c2ccc(/C=C3/C(=O)N/C(=N\C(C)=O)N3C)cc2)N1C	inactive: > 100 µM
CN(C)c1ccc(C2ON=C(c3ccccc3)N2C23CC4CC(CC(C4)C2)C3)cc1 (centres undefined)	active: 0.745 µM
COC1=CC(=O)C2C(C1=O)[C@@H]1c3ccccc3OC(C)(C)[C@H]21 (some centres undefined)	inactive: > 100 µM
CC(=O)NC1(NC(C)=O)C2CC(C1Cc1ccccc1)C(C)(C)C2C (centres undefined)	inactive: > 100 µM

Structure (SMILES)	GI50
CCC(CC)(CO)CNc1cc(Cl)nc(N)n1	inactive: > 100 µM
N#Cc1c(-c2ccc([N+](=O)[O-])cc2)c(C#N)c(=O)n(NS(=O)(=O)c2ccccc2)c1O	inactive: > 100 µM
Cc1c(CCN2CCOCC2)c(N2CCOCC2)n2c(nc3ccccc32)c1C#N	inactive: > 10 µM
CN1C(=O)C(C)(C)C2(SC(C)(C)C2(C)C)N(C)C1=S (centres undefined)	inactive: > 100 µM
CC(N1CCOCC1)C(O)(c1ccccc1)c1ccccn1 (centres undefined)	inactive: > 100 µM
O=C1/C(=C/c2ccccc2)CCCc2ccccc21	inactive: 20.7 µM
CCOP(=O)(OCC)C(c1ccc(F)cc1)N(C(=O)NC(F)(F)F)c1ccc(OC)cc1 (centres undefined)	inactive: > 100 µM
CCCCCCCCCCCCC(Br)C(C)=O (centres undefined)	inactive: > 100 µM
CC(C)(CO)N1CCN(C(S)=Nc2ccccc2)CC1	inactive: > 100 µM
CN1CCN(c2ccc3[nH]c(-c4ccc5[nH]c(-c6ccc(N(C)CCCl)cc6)nc5c4)nc3c2)CC1	active: 0.231 µM
COC1=CC(=O)OC(/C=C(C)/C=C/C2=C(C)CCCC2(C)C)C1 (centres undefined)	inactive: > 100 µM
C=CCNC(=O)N(CCC)CCCCC(NC(C)=O)C(=O)NCc1ccccc1 (centres undefined)	inactive: > 100 µM
CN(C)CC1CCCC/C1=N/O (centres undefined)	inactive: > 100 µM
C=CCOC(C)n1c(C)c(Br)c(=O)[nH]c1=O (centres undefined)	inactive: > 100 µM
O=C(O)c1cc2c3ccccc3nc-2c[nH]1	inactive: > 100 µM
Nc1ccc2c(c1)CN1C(=O)c3ccccc3C1=N2 [DANIQUIDONE]	inactive: 44.2 µM
COS(=O)c1cc(Cl)cc(Cl)c1OC(=O)CSSCC(=O)Oc1c(Cl)cc(Cl)cc1S(=O)OC (centres undefined)	inactive: 11.5 µM
COC(=O)C(=O)C(C(=O)C(=O)Nc1ccccc1C(N)=O)c1nc2ccc([N+](=O)[O-])cc2nc1O (centres undefined)	inactive: > 100 µM
COc1ccc2ccccc2c1C1=NC(C)(C)CO1	inactive: > 100 µM
CCN(CC)C(=S)SC1CCOP(=O)(N(CCCl)CCCl)N1C (centres undefined)	inactive: > 79.6 µM
Brc1ccc2c(c1)C1C(CO2)C(c2ccccc2)=NN1c1ccccc1 (centres undefined)	inactive: > 100 µM
Cc1csc2c1-n1cccc1C2=O	inactive: > 100 µM
CC(=O)OCC1OC(N2C(c3ccccc3)=CC(c3ccco3)C(C#N)=C2S)C(OC(C)=O)C(OC(C)=O)C1OC(C)=O (centres undefined)	inactive: 26.3 µM
NC(=O)C[C@H](NC(=O)C1(NC(=O)[C@H](Cc2ccc(CP(=O)(O)O)cc2)NC(=O)C(=O)O)CCCCC1)C(=O)NCCCc1cccc2ccccc12	inactive: > 10 µM

Structure (SMILES)	GI50
C/C=C/COC(=O)CO[N+](=O)[O-]	inactive: > 100 µM
COC(=O)Cc1cc(OC)c(OC)cc1Br	inactive: > 100 µM
C/C=C1/CN2CCC3(O)c4ccccc4N4C=C(C(=O)OC)C1CC2C43O (centres undefined)	inactive: > 100 µM
CCCCc1ccc(Nc2nc(Cl)c3c(ncn3COCCOC(C)=O)n2)cc1	inactive: 15.7 µM
CC[C@]1(c2ccc3c(c2)OCO3)C=[N+]([O-])O[C@H](OC2CCCC2(c2ccccc2)c2ccccc2)[C@@H]1OC(C)=O (some centres undefined)	inactive: 2.51 µM
COc1cc(S(=O)(=O)Nc2nc(-c3ccc(N4C(=O)C(CC(=O)O)SC4c4cccs4)cc3)cs2)ccc1Cl (centres undefined)	inactive: > 100 µM
OC1=C(c2ccccc2)C2=NCCN2c2ccccc21	inactive: 53.1 µM
Cc1nc(N)nc(N)c1-c1ccc(Cl)c(Cl)c1 [METOPRINE]	inactive: 2.07 µM
CN(C)/N=N/c1ccc2[nH]c(=O)[nH]c2c1	inactive: > 100 µM
O=C(CBr)N1CCC2(CC1)SSC1(CCN(C(=O)CBr)CC1)S2	inactive: 2.26 µM
[N-]=[N+]=NC1(c2ccccc2)C(=O)c2cccc3c2N(CCC3)C1=O (centres undefined)	inactive: 38.2 µM
Cc1cc(O)nc(CNC(=O)c2cccc(C(=O)NCc3cc(O)nc(C)n3)c2)n1	inactive: > 100 µM
N/N=C1\C(OC(=O)Nc2cccc(Cl)c2)=Nc2ccccc21	inactive: 9.4 µM
COc1ccc2c(c1OC)CN1CCc3cc4c(cc3C1C2)OCO4 (centres undefined) [TETRAHYDROBERBERINE]	inactive: > 100 µM
O=C1CCC2(c3ccccc3)Nc3ccccc3N12 (centres undefined)	inactive: > 100 µM
O=C(O)CCc1c2ccc(=O)c(O)c-2oc2c(O)c(O)ccc12	inactive: 33.9 µM
CC(=O)Oc1c(OC(C)C)c(C)c(O[Si](C(C)C)(C(C)C)C(C)C)c2[nH]c3ccccc3c12	inactive: > 100 µM
COc1cc2nc3n(c(=O)c2cc1OC)CCCCC3	inactive: > 100 µM
N#CCCN(c1ccc(/C=N/c2cccc([N+](=O)[O-])c2)cc1)S(=O)(=O)c1ccccc1	inactive: > 100 µM
Cc1c(-c2coc(-c3ccccc3)n2)c(=O)n(-c2ccccc2)n1C	inactive: > 100 µM
CC12CO[C@@](C)(CC(S(=O)(=O)c3ccccc3)C1)O2 (some centres undefined)	inactive: > 100 µM
C/C(=N\Nc1nc2ccccc2o1)c1ccc2ccccc2n1	inactive: 3.3 µM
CC(=O)/C(=N\O)C(=O)NCc1ccccc1	inactive: > 100 µM
Cn1c(=O)nc2n(-c3cc(C(F)(F)F)cc(C(F)(F)F)c3)c3ccccc3nc-2c1=O	inactive: > 100 µM

Structure (SMILES)	GI50
CCOC(=O)N1C(=S)C(C(=O)OC)(C(=O)OC)N=C1C	inactive: > 100 µM
N#Cc1nnc2ccccc2c1N	inactive: > 100 µM
COc1ccc(/C=N\N2C(=O)Cc3ccccc32)cc1	inactive: 46.8 µM
C[C@@H](CO)OCOCc1ccccc1	inactive: > 100 µM
O=C1Oc2ccccc2C(=O)/C1=C/N1C(=O)/C(=C/c2ccc3c(c2)OCO3)SC1=S	inactive: 28.4 µM
CCOc1ccc(N/C(=C(/C(Cl)=C(/Cl)N(CC)CC)[N+](=O)[O-])n2nnc3ccccc32)cc1	inactive: > 100 µM
N#CC12CCC1C1CCCCC12N1CCSCC1 (centres undefined)	inactive: > 100 µM
COc1ccc2nc(/C(N)=C\C#N)ccc2c1	inactive: > 100 µM
S=C(Nc1ccccn1)Nc1ccccc1Cl	inactive: > 71 µM
CCC1OC(=O)CC(O)C(C)C(OC2OC(C)CC(N(C)C)C2O)C(CC=O)CC(C)C(=O)/C=C/C2(C)OC2C1C (centres undefined)	inactive: 36.7 µM
CN(C)c1nc(NN)c2c(-c3ccccc3)c(-c3ccccc3)oc2n1	inactive: > 100 µM
COc1ccc(-c2cc(=O)c3ccccc3[nH]2)c(OC)c1	inactive: > 100 µM
O=c1c2ccccc2sc2nc(CCl)nn12	inactive: 6.58 µM
CC(=O)c1[nH]c(NCc2ccccc2)c(C(=S)Nc2ccccc2)c1N	inactive: 30.7 µM
Cc1cc2c(c(/C=N/c3ccccc3O)c1)OC1(C=C2)Oc2ccccc2C(=O)N1C (centres undefined)	inactive: 17.9 µM
Cn1c2cc([N+](=O)[O-])ccc2c(=O)c2c(O)cc3c(c21)C=CC(C)(C)O3	inactive: > 100 µM
O=C(Nc1ccc(F)cc1)c1cc2ccc(O)cc2o/c1=N\c1ccccc1F	inactive: 13.8 µM
CN1CC=C(C#CC(C)(C)O)CC1	inactive: > 37.5 µM
O=C(Cc1nc2ccccc2c(=O)n1-c1ccccc1Cl)c1ccncc1	inactive: > 100 µM
CC(=O)/C=C(/C=N/O)c1ccccc1	inactive: > 100 µM
Nc1ccc2c3[nH]c4cc(N)ccc4cc-3nc2c1	active: 0.333 µM
Cc1ccc(NC(=O)C(=O)CC(=O)C2CCOC2=O)c(C)c1 (centres undefined)	inactive: > 100 µM

Reference: ChEMBL document CHEMBL1201862, “PubChem BioAssay data set” (2004)
